Reference: the supplement of paper PMC12217912
The list shows a part of the results. Sequences were assembled here from the parent chain. Inactive controls read about 0.05.

B1: TEV protease; numbered along this chain (parent)
chain: MGESLFKGPRDYNPISSSICHLTNESDGHTTSLYGIGFGPFIITNKHLFRRNNGTLVVQSLHGVFKVKDTTTLQQHLVDGRDMIIIRMPKDFPPFPQKLKFREPQREERICLVTTNFQTKSMSSMVSDTSCTFPSGDGIFWKHWIQTKDGQCGSPLVSTRDGFIVGIHSASNFTNTNNYFTSVPKNFMELLTNQEAQQWVSGWRLNADSVLWGGHKVFMVKPEEPFQPVKEATQL

Variants of: B1
Assay: raw area under fraction-flipped curve 0-4 h after induction (AUC4h, not background-subtracted), DNA-recorder readout of cleavage of the substrate (dimensionless); higher = more cleavage of the substrate by the protease variant
Details: temperature: 34 °C; time window: 0-4 h after rhamnose induction
Description: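 In vivo DNA recorder in E. coli TOP10(DE3) ΔrhaA at 34 °C. Each TEVp single-site mutant (parent TEVp 0) is paired with a single-site variant of the 7-mer TEVs (canonical ENLYFQ|S). The substrate sits between flexible linkers in a Bxb1-sfGFP-TEVs-SsrA fusion, so cleavage stabilises Bxb1 and speeds flipping of a recombination array, read by NGS. The value is the raw area under the fraction-flipped curve over 0-4 h after rhamnose induction (AUC4h), with ≥20 reads per time point. It is not background-subtracted; inactive controls average about 0.047.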
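Note: Bxb1 expression induced with 0.2% (w/v) L-rhamnose at OD600 near 0.5, cultures sampled hourly, flipped fraction per protease–substrate barcode pair counted by paired-end Illumina sequencing.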

| Variant | area with substrate ENLYDQS | area with substrate ENLYEQS | area with substrate ENLYGQS | area with substrate ENLYIQS | area with substrate ENLYMQS | area with substrate ENLYNQS | area with substrate ENLYPQS | area with substrate ENLYRQS | area with substrate ENLYSQS | area with substrate ENLYTQS | area with substrate ENLYVQS | area with substrate ENLYWQS | area with substrate ENLYHQS | area with substrate ENLYKQS | area with substrate ENLYYQS | area with substrate ENLYQQS | area with substrate ENLYLQS |
| --- | --- | --- | --- | --- | --- | --- | --- | --- | --- | --- | --- | --- | --- | --- | --- | --- | --- |
| G136M | 0.0553 | 0.0638 | 0.077 | 0.0791 | 0.1 | 0.0881 | 0.0669 | 0.0615 | 0.0852 | 0.0846 | 0.17 | 0.0926 |  |  |  |  |  |
| G166N |  | 0.058 | 0.0541 | 0.0397 | 0.0517 |  | 0.0453 |  | 0.0545 |  | 0.0631 | 0.0471 | 0.0673 | 0.0508 |  |  |  |
| F163L |  | 0.0518 | 0.0928 |  | 0.0949 |  | 0.0801 | 0.079 | 0.0627 |  |  | 0.0866 |  | 0.074 | 0.066 |  |  |
| V183F |  | 0.0755 | 0.0695 | 0.131 | 0.0912 | 0.0627 | 0.0714 | 0.0852 | 0.0295 | 0.0904 | 0.114 | 0.0715 | 0.0538 | 0.0377 |  |  |  |
| W141G | 0.0497 | 0.0592 |  |  | 0.0564 | 0.0589 | 0.0522 | 0.0478 |  | 0.0603 | 0.043 | 0.0558 | 0.0522 | 0.0507 | 0.0535 | 0.0708 |  |
| Q227T |  | 0.065 | 0.0653 | 0.128 |  | 0.0754 | 0.0568 | 0.0726 | 0.0716 |  | 0.164 | 0.0906 | 0.0764 |  | 0.0798 | 0.0256 |  |
| W212F | 0.0464 | 0.0606 | 0.0624 | 0.105 | 0.0859 | 0.0618 |  | 0.0624 | 0.0875 |  | 0.0982 | 0.0886 | 0.0735 | 0.0824 |  | 0.0685 |  |
| N52H |  | 0.0816 | 0.0609 |  |  | 0.0439 | 0.0493 | 0.0598 |  |  | 0.0643 | 0.0628 | 0.0553 |  |  | 0.0628 |  |
| T30K |  | 0.0692 | 0.0812 | 0.119 | 0.0639 | 0.0726 | 0.0874 | 0.0619 |  |  | 0.0813 | 0.0733 | 0.0732 |  |  | 0.0606 |  |
| R109H |  | 0.0812 | 0.0695 | 0.107 | 0.0617 |  | 0.0777 |  | 0.0635 | 0.055 | 0.116 | 0.084 | 0.0728 | 0.0557 |  |  | 0.112 |
| M125K | 0.0588 | 0.0778 | 0.128 |  | 0.0844 | 0.084 | 0.0795 | 0.0604 | 0.082 |  |  |  | 0.101 | 0.0211 | 0.0673 | 0.0669 |  |
| R10N |  | 0.0611 |  | 0.0927 | 0.0847 | 0.0576 |  | 0.0647 | 0.0525 |  |  | 0.0741 | 0.0464 | 0.0584 |  | 0.0814 | 0.0786 |
| G80R | 0.0656 | 0.0594 | 0.0124 | 0.138 | 0.0693 | 0.0654 | 0.0683 | 0.0601 | 0.0856 |  |  |  | 0.0777 | 0.0744 | 0.0709 |  |  |
| L211C | 0.0619 | 0.103 | 0.0727 | 0.104 | 0.0977 | 0.08 |  | 0.0709 |  | 0.0954 | 0.0782 | 0.0911 | 0.0803 | 0.0611 | 0.0633 | 0.0511 |  |
| T70D | 0.0584 |  | 0.0572 |  | 0.0578 | 0.0631 |  | 0.0645 | 0.0572 | 0.0733 |  |  | 0.0642 | 0.0578 |  |  |  |
| I139F | 0.0931 | 0.0769 |  | 0.0704 | 0.0888 | 0.057 | 0.0712 | 0.0752 |  |  | 0.101 | 0.0866 | 0.0731 | 0.0573 |  | 0.0745 |  |
| F95W |  | 0.0636 | 0.055 | 0.0982 | 0.0838 | 0.0684 | 0.0684 | 0.0582 | 0.0575 |  |  | 0.0654 | 0.0682 |  |  | 0.0691 | 0.0662 |
| F95V | 0.0598 | 0.0569 |  |  |  |  |  | 0.0718 | 0.102 |  | 0.103 | 0.0651 | 0.0619 | 0.0561 | 0.0376 |  |  |
| V58K |  | 0.0457 | 0.0359 | 0.0535 | 0.065 | 0.0629 | 0.0463 |  |  | 0.0453 |  | 0.05 | 0.0395 | 0.0281 |  | 0.0455 | 0.054 |
| I42H |  |  |  |  | 0.0814 | 0.0411 |  |  | 0.0764 |  |  | 0.0488 | 0.0375 |  | 0.0356 |  | 0.0528 |
| F117K | 0.0611 | 0.0759 | 0.0577 |  | 0.0455 | 0.066 | 0.0707 | 0.0521 | 0.069 |  | 0.114 |  | 0.019 |  | 0.0645 | 0.063 |  |
| I19L | 0.0529 | 0.0717 | 0.0641 |  | 0.0761 | 0.0751 | 0.0838 |  | 0.0847 | 0.066 |  | 0.0945 | 0.0751 | 0.0391 | 0.0431 | 0.0641 |  |
| S26A |  | 0.0407 | 0.0684 | 0.0877 | 0.0617 | 0.0722 | 0.0712 | 0.0681 | 0.0737 | 0.0704 |  | 0.0757 | 0.0608 | 0.0422 |  | 0.0698 | 0.0715 |
| S26G |  | 0.0598 | 0.0693 |  |  | 0.0632 | 0.0747 |  | 0.0595 | 0.0161 |  |  | 0.0451 |  |  | 0.0567 |  |
| K230T |  | 0.0678 | 0.0686 | 0.121 | 0.0742 | 0.0604 | 0.112 | 0.0606 | 0.0633 | 0.0715 |  | 0.0796 | 0.0667 | 0.0673 | 0.0633 | 0.058 | 0.065 |
| N53T | 0.088 | 0.0654 | 0.0537 | 0.124 | 0.0608 | 0.0656 | 0.0526 | 0.0594 | 0.0644 |  |  | 0.0665 | 0.0631 | 0.0273 | 0.0654 |  |  |
| Q194P | 0.0568 | 0.0685 |  | 0.106 | 0.0966 |  |  | 0.0653 | 0.0621 | 0.0997 |  |  |  | 0.0419 |  |  |  |
| K148F |  |  |  | 0.127 |  | 0.0661 |  | 0.0852 |  |  |  |  | 0.0614 |  |  |  |  |
| Y12E | 0.06 | 0.0674 | 0.0674 | 0.127 | 0.0712 | 0.0673 | 0.0788 | 0.0519 |  |  | 0.0868 | 0.0941 | 0.0669 | 0.0511 | 0.068 | 0.059 | 0.0813 |
| F133Y | 0.0552 | 0.0427 |  | 0.113 | 0.0812 | 0.0739 |  |  |  |  | 0.124 |  | 0.0625 | 0.0632 |  | 0.0685 |  |
